Laboratory results: a collection of fitness landscapes (doi:10.1016/j.celrep.2020.107928)
The full ranking holds about 81,000 sequences; the median of “one-hybrid fitness for binding NBS DNA” is about -0.1, and the highest 2% start at about 0.36. The list shows a part of the results.

B1: Caulobacter ParB omega fusion; a variant is named by its letters at X, in order, B8GW30 (parent)
chain: MESVVVGEPGMSEGRRGLGRGLSALLGEVDAAPAQAPGEQLGGSREAPIEILQRNPDQPRRTFREEDLEDLSNSIREKGVLQPILVRPSPDTAGEYQIVAGERAWRAAQRAGLKTVPIMVRELDDLAVLEIGIIENVQRADLNVLEEALSYKVLMEKFERTQENIAQTIGKSXSHVANXMRLLXLPDEVQSYLVSGELTAXHARAIAAAADPVALAKQIIEGGLSVRETEALARKAPNLSAGKSKGGRPPRVKDTDTQALESDLSSVLGLDVSIDHRGSTGTLTITYATLEQLDDLCNRLTRGI

Variants of: B1
Test: one-hybrid fitness for binding NBS DNA (the Noc-binding site; scaled: cognate 1, non-cognate 0); higher = stronger binding
Conditions: with NBS DNA site
Summary of the method: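 In E. coli USO, a HIS3 reporter with its site placed 19 bp from the promoter was used to select Caulobacter ParB variants randomised at four specificity codons. Growth lasted 48 hours at 37°C on histidine-free M9 containing 0.1 mM IPTG and 5 mM 3-AT. Fitness was taken as the log change in variant-to-wild-type read ratio from Illumina sequencing of pre- and post-selection plasmids, rescaled between the non-cognate and cognate sites.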

Variant | one-hybrid fitness for binding NBS DNA
MLFT | ≤ 0.2
NQAR | ≤ 0.2
LLMK | ≤ 0.2
TAVF | ≤ 0.2
SPIR | ≤ 0.2
NYPG | ≤ 0.2
VFMV | ≤ 0.2
KRNM | ≤ 0.2
QDNY | ≤ 0.2
SPQW | ≤ 0.2
HGAL | ≤ 0.2
TQWT | ≤ 0.2
VKVT | ≤ 0.2
IWKN | ≤ 0.2
PGGI | ≤ 0.2
HTLF | ≤ 0.2
VGCV | ≤ 0.2
SKGS | ≤ 0.2
METI | ≤ 0.2
ESLW | ≤ 0.2
PLPE | ≤ 0.2

Variant | one-hybrid fitness for binding NBS DNA
TLSV | ≤ 0.2
IRGG | ≤ 0.2
LSIH | ≤ 0.2
ANLH | ≤ 0.2
SCRA | ≤ 0.2
TGDA | ≤ 0.2
VEHT | ≤ 0.2
RGHI | ≤ 0.2
NWQM | ≤ 0.2
RVAL | ≤ 0.2
PVPD | ≤ 0.2
LWGR | ≤ 0.2
QASH | ≤ 0.2
CHAT | ≤ 0.2
REGW | ≤ 0.2
SNQE | ≤ 0.2
AWRE | ≤ 0.2
QEAW | ≤ 0.2
VMPP | ≤ 0.2
ANKW | ≤ 0.2
CLYG | ≤ 0.2

Variant | one-hybrid fitness for binding NBS DNA
LTWA | ≤ 0.2
PHHD | ≤ 0.2
CLHK | ≤ 0.2
HHVV | ≤ 0.2
EDWS | ≤ 0.2
NWEC | ≤ 0.2
RVWM | ≤ 0.2
RNTE | ≤ 0.2
PDHQ | ≤ 0.2
AFAA | ≤ 0.2
VDLF | ≤ 0.2
QAKK | 0.396
ASFR | ≤ 0.2
MHWC | ≤ 0.2
RCAP | ≤ 0.2
HVSG | ≤ 0.2
THRW | ≤ 0.2
EQNI | ≤ 0.2
MRMG | ≤ 0.2
LHTF | ≤ 0.2
IIAS | ≤ 0.2

Variant | one-hybrid fitness for binding NBS DNA
RFCW | ≤ 0.2
ILKY | ≤ 0.2
VHYS | ≤ 0.2
GPNS | ≤ 0.2
ISWV | ≤ 0.2
TDLP | ≤ 0.2
RCRY | 0.363
QSLP | ≤ 0.2
TNTV | ≤ 0.2
LGGG | ≤ 0.2
VCWR | ≤ 0.2
HRSH | ≤ 0.2
SQHG | ≤ 0.2
ISAG | ≤ 0.2
CPYR | ≤ 0.2
KAWD | ≤ 0.2
QAVV | ≤ 0.2
TAQN | ≤ 0.2
ICGS | ≤ 0.2
MSTF | ≤ 0.2
YHPC | ≤ 0.2
